Test results taken from article PMC6919601, “Identification of Plasmodium dipeptidyl aminopeptidase allosteric inhibitors by high throughput screening” (PLoS ONE, 2019).

What was measured:
DPAP1 = target: T1, DPAP1 (Plasmodium falciparum, UniProt Q8IIJ9); experiment: biochemical; format: biochemical; details: 10 μM compound, parasite lysates, (PR)2Rho, 30 min end-point; read-out: DPAP1 % Inhibition @ 10 uM
T1 sequence (Q8IIJ9 370-599 limits assumed): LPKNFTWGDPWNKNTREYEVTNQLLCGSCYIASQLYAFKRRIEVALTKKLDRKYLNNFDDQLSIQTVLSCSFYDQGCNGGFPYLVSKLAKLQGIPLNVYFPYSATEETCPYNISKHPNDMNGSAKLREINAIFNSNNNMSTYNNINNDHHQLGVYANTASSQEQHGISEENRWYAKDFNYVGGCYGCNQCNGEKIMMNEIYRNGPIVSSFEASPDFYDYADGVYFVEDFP
T1 sequence (Q8IIJ9 28-209 limits assumed): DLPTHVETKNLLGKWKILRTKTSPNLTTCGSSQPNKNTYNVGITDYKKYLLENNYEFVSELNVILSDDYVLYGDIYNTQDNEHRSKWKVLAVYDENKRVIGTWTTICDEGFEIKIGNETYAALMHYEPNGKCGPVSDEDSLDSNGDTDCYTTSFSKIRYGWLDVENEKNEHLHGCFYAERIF
T1 sequence (Q8IIJ9 600-700 limits assumed): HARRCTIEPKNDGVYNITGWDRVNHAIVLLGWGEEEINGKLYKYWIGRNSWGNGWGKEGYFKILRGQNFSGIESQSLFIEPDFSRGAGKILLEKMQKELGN

[1] = system: WI-38 primary lung fibroblast; details: 10 uM; ref SMDC Assay #440; cited from earlier work

| SMILES | inhibition at 10 µM (DPAP1) [%] | Cell Toxicity WI-38 primary lung fibroblast %Inhibition @ 10 uM [1] [%] |
| --- | --- | --- |
| C(=C\c1ccccc1)/CN1CCN(C2CCN(CCc3ccccc3)CC2)CC1 [SMDC27734, C(Cc1ccccc1)N2CCC(CC2)N3CCN(C\C=C\c4ccccc4)CC3] | 98 | -3 |
| O=C1CN(S(=O)(=O)c2ccccc2)CCN1S(=O)(=O)c1ccccc1 [SMDC103197, O=C1CN(CCN1S(=O)(=O)c2ccccc2)S(=O)(=O)c3ccccc3] | 61 | -2 |
| O=C(NCc1cccs1)c1cccc(COc2cccc(Cl)c2)c1 [SMDC103732, Clc1cccc(OCc2cccc(c2)C(=O)NCc3cccs3)c1] | -3 | 12 |
| Cc1ccc(S(=O)(=O)c2cc3c(=O)n4ccccc4nc3n(C)c2=N)cc1 [SMDC108710, CN1C(=N)C(=CC2=C1N=C3C=CC=CN3C2=O)S(=O)(=O)c4ccc(C)cc4] | 58 | -1 |
| Nc1c(C(=O)Nc2nccs2)sc2nc(-c3cccs3)cc(C(F)(F)F)c12 [SMDC153131, Nc1c(sc2nc(cc(c12)C(F)(F)F)c3cccs3)C(=O)Nc4nccs4] | 77 | 17 |
| S=c1[nH]c(=S)c2c3c(sc2[nH]1)CCC3 [SMDC153437, S=C1NC(=S)c2c3CCCc3sc2N1] | 85 | 5.7 |
| O=C1N=C(N2CCN(Cc3ccccc3)CC2)S/C1=C\c1cccc(O)c1 [SMDC154584, Oc1cccc(\C=C\2/SC(=NC2=O)N3CCN(Cc4ccccc4)CC3)c1] | 51 | 5.5 |
| Cc1nc2scc(C)n2c(=O)c1S(=O)(=O)NC1CCCCCCC1 [SMDC168234, CC1=CSC2=NC(=C(C(=O)N12)S(=O)(=O)NC3CCCCCCC3)C] | 72 | 14 |
| COc1ccc2c(c1)cc1c(=O)n(CC(=O)NCc3cccc(OC)c3OC)nc(C)n12 [SMDC175681, COc1ccc2c(c1)cc3C(=O)N(CC(=O)NCc4cccc(OC)c4OC)N=C(C)n23] | 99 | -3 |
| Cn1c2ccccc2c2cnn(CC(=O)N3CCN(c4ncccn4)CC3)c(=O)c21 [SMDC177386, Cn1c2C(=O)N(CC(=O)N3CCN(CC3)c4ncccn4)N=Cc2c5ccccc15] | 54 | -5 |
| Cc1ccc(CNC(=O)c2noc3c2COc2ccccc2-3)cc1 [SMDC184592, Cc1ccc(CNC(=O)c2noc3c2COc4ccccc34)cc1] | 73 | -2 |
| Cc1cccc(CCNC(=O)c2noc3c2COc2ccccc2-3)c1 [SMDC184622, Cc1cccc(CCNC(=O)c2noc3c2COc4ccccc34)c1] | 75 | 0 |
| COc1ccc(C(=O)CCN(C)CC(=O)O)cc1 [SMDC197624, COc1ccc(cc1)C(=O)CCN(C)CC(=O)O] | 56 | 1.8 |
